# Test results published in publication PMC10668032.
# The other results are listed elsewhere or left out. At the low end of the ranking, values are background and their order means little.
# Target: SIX1 homeodomain (reference allele) (UniProt Q15475)
# Assay: universal protein binding microarray
# Conditions: Universal all-10-mer PBM (8x60K, AMADID 030236), 300 nM GST-tagged protein, Alexa Fluor 488 anti-GST; buffer, salt, pH and temperature not stated; high values mean tight binding; most listed sequences are background and not binding sites; double strand, one strand shown
row,Sequence,binding signal
1,CTTGGGCC,-0.183 E-score
2,CAACTCAC,-0.0755 E-score
3,ATGCCCGC,0.0458 E-score
4,AGATTAAG,0.0533 E-score
5,ATAGCAGA,0.118 E-score
6,AGATCGAG,0.113 E-score
7,CAACGGTG,0.0942 E-score
8,AACATGAG,0.0797 E-score
9,ACTCGGAC,-0.111 E-score
10,CCTGCGCG,-0.0477 E-score
11,GGTCGTGA,0.0895 E-score
12,ACCGTTAT,-0.038 E-score
13,CGGAATTC,-0.104 E-score
14,ATGACACC,0.471 E-score
15,ACGGTATC,0.461 E-score
16,ATGGTACG,-0.0554 E-score
17,GAGGAAAC,-0.172 E-score
18,AAAGGTTA,-0.249 E-score
19,AGTGCCCC,-0.0655 E-score
20,CTGGCTTA,-0.0297 E-score
21,TGAGCCAA,-0.122 E-score
22,AGGCCCCG,-0.178 E-score
23,AGAGGTGC,-0.068 E-score
24,AGACTTAC,-0.0941 E-score
25,AAGCGCAA,-0.209 E-score

row,Sequence,binding signal
1,GAAGACTA,-0.248 E-score
2,CGTACAAC,-0.184 E-score
3,ATTATGTC,-0.144 E-score
4,CGGCTGTC,-0.0475 E-score
5,GTTTGGAA,-0.126 E-score
6,CACTTTAC,-0.153 E-score
7,CCCATGCC,-0.0127 E-score
8,ACTCCTAG,-0.0257 E-score
9,ATAGTGCA,0.163 E-score
10,AGTAATAA,-0.03 E-score
11,AGCCAGAG,-0.0222 E-score
12,CTATTAAG,0.00083 E-score
13,CTAAGACC,-0.151 E-score
14,ATATGTTG,0.225 E-score
15,AACTTCAC,-0.147 E-score
16,TCACACCA,0.195 E-score
17,GACAACTC,-0.16 E-score
18,CATGCTAC,-0.0951 E-score
19,AGATTGTG,-0.0423 E-score
20,CTTATGGC,-0.325 E-score
21,TATCTGCA,0.284 E-score
22,GTCATGAC,-0.0837 E-score
23,GTTCAACA,-0.125 E-score
24,ATCCTTGC,0.2 E-score
25,CCTAGGGC,-0.146 E-score

row,Sequence,binding signal
1,ATATTAGC,0.0869 E-score
2,AGTCCCGA,-0.193 E-score
3,GTCCTAGA,-0.0713 E-score
4,ATTCTTTA,-0.0643 E-score
5,CTTACGTC,-0.247 E-score
6,CGCCGTGC,-0.0196 E-score
7,AGTTCTGA,-0.176 E-score
8,GCCCTAGC,-0.0978 E-score
9,GCATCGCA,-0.0758 E-score
10,CTTACAAA,-0.192 E-score
11,GAGACTGC,-0.0229 E-score
12,ACTGTAAA,-0.0733 E-score
13,ATGTACAG,-0.112 E-score
14,AAAACGGG,-0.00222 E-score
15,CTTCAAGC,-0.188 E-score
16,ACAACGTG,-0.0482 E-score
17,CATCAGTA,0.0592 E-score
18,CCTTCTAC,-0.00567 E-score
19,AGCTCGCC,-0.0781 E-score
20,CGCTTGAA,-0.0102 E-score
21,AATGGGGT,0.042 E-score
22,ACATACTA,0.00856 E-score
23,GAACACAC,-0.0987 E-score
24,GGCACCGA,-0.114 E-score
25,GGCACCAA,-0.00958 E-score

row,Sequence,binding signal
1,CCGCCTAG,0.0347 E-score
2,ATGTGGAA,-0.117 E-score
3,CTATTAAA,-0.0207 E-score
4,CAACTTGG,-0.0801 E-score
5,CAAGACCA,-0.111 E-score
6,GCAAACCA,0.00225 E-score
7,CGACTTAC,0.116 E-score
8,CTTGCGTA,0.0072 E-score
9,CTCAGTAA,-0.107 E-score
10,AAAAGCTA,-0.292 E-score
11,CTCATCAC,0.0672 E-score
12,ATTTAATA,0.164 E-score
13,ATCTGGGA,0.196 E-score
14,AAGGAAGT,-0.239 E-score
15,CCCTTAAC,-0.0779 E-score
16,CACGGCTG,0.0253 E-score
17,ATGCACAT,0.0285 E-score
18,CTTGCGTC,-0.212 E-score
19,ACCCAGGG,-0.0357 E-score
20,CAGGCCAG,-0.0438 E-score
21,CTTTACTC,-0.131 E-score
22,ATTGTGGG,-0.00693 E-score
23,GGAGCTCC,-0.202 E-score
24,CAGCAGTA,-0.0779 E-score
25,CTGACGGA,-0.215 E-score

row,Sequence,binding signal
1,GCCAGGCC,-0.299 E-score
2,CCACTAAG,-0.0459 E-score
3,GGGGGATA,0.442 E-score
4,ATGGGTAC,-0.0186 E-score
5,TATGCCCA,0.0887 E-score
6,AATTAGAG,-0.105 E-score
7,CATGCTCC,-0.149 E-score
8,CTTCACCC,-0.0463 E-score
9,TAATTGCA,-0.00933 E-score
10,CAGCCTTA,-0.149 E-score
11,CACTGTAG,0.072 E-score
12,CTTTGTTC,-0.244 E-score
13,CTGTTATC,0.0618 E-score
14,CAGGCTCG,-0.0782 E-score
15,ATTTTGTC,-0.238 E-score
16,AGAGGCGA,-0.202 E-score
17,ACGGTGGC,-0.126 E-score
18,CGTTAAAA,-0.283 E-score
19,AAGTGGTC,-0.132 E-score
20,AACAGCTA,5e-05 E-score
21,ACATGGCA,0.00146 E-score
22,GTCCTGGA,-0.191 E-score
23,ACATTCAG,-0.101 E-score
24,ATCGTTGG,0.205 E-score
25,CCTGCACG,-0.0523 E-score

row,Sequence,binding signal
1,AGGGACCT,-0.017 E-score
2,CAGAGTTA,-0.185 E-score
3,AAGTGGCC,-0.189 E-score
4,CAGGTTGC,-0.139 E-score
5,AAGAACCA,-0.187 E-score
6,TCTCGACA,0.0451 E-score
7,TAGCAGCA,-0.136 E-score
8,ATCCCGGA,0.196 E-score
9,GTAGTACA,-0.0431 E-score
10,CAATACTA,0.262 E-score
11,CAAGGCCA,-0.144 E-score
12,TGCCAACA,-0.187 E-score
13,AATACTCA,0.255 E-score
14,ATTGGGGG,0.152 E-score
15,GCTGAGAA,-0.0745 E-score
16,AAGTGAAT,0.0397 E-score
17,CCCACTCC,0.0876 E-score
18,ATGCATCG,-0.00749 E-score
19,CGATCGAC,0.0875 E-score
20,ATAAGCGG,-0.107 E-score
21,CCAATATA,0.0646 E-score
22,AGACACGG,0.119 E-score
23,ACAACATA,0.103 E-score
24,AGTCCCTG,-0.214 E-score
25,AGCTAGAA,-0.136 E-score

row,Sequence,binding signal
1,GACTCAGA,-0.171 E-score
2,GATAATGC,0.16 E-score
3,AGGTGGAG,-0.235 E-score
4,CTTTGTTA,-0.174 E-score
5,CCATTGGA,-0.076 E-score
6,GCCCTCTA,-0.192 E-score
7,ATCCGGGG,0.418 E-score
8,GCCCCGCA,-0.149 E-score
9,GAGATGGC,0.0997 E-score
10,AACAATTG,-0.128 E-score
11,CTTAGTTC,-0.12 E-score
12,CCCCAGGC,-0.0557 E-score
13,CTTAAGAC,-0.0562 E-score
14,TAGGATCA,0.409 E-score
15,ATAGTTAC,0.0991 E-score
16,CGGAAAAG,-0.17 E-score
17,GCAACTGA,0.053 E-score
18,GTTCGAAA,-0.168 E-score
19,TGTTAGAA,-0.159 E-score
20,CGGCAACG,-0.0865 E-score
21,TTATAAAA,-0.234 E-score
22,TGAAGCAA,-0.147 E-score
